Data as given in the supplement of paper PMC3334620.
Over roughly 33,000 sequences, “E-score (-0.5 to 0.5)” has its median near -0.032; the highest 2% begin near 0.36. This is one part of the list.

The sequences below were run against T1, Sko1 (UniProt Q02100) (assay: PBM E-score (8-mer binding enrichment) (E-score (-0.5 to 0.5)); higher = stronger / more preferred TF binding; most listed sequences are background and not binding sites). Settings: protein concentration: 200 nM; construct: GST-full length.
T1 sequence: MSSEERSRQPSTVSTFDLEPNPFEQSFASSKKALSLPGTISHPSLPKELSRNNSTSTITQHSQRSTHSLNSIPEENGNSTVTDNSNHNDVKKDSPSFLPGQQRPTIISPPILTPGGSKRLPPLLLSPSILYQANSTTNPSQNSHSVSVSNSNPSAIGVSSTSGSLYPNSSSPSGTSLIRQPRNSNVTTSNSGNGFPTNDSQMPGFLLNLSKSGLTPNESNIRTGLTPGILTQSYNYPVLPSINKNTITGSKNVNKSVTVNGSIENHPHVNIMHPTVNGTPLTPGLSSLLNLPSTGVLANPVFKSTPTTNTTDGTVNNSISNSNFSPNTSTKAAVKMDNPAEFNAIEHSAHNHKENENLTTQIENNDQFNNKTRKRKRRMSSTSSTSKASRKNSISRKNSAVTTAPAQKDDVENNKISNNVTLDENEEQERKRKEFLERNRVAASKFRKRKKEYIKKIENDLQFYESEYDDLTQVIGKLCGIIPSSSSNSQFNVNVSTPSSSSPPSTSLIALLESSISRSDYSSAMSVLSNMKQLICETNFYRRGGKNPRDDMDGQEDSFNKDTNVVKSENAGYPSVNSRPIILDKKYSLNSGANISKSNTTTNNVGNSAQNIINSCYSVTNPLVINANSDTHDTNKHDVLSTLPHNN
Outline: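 Yeast transcription factors carrying a GST tag, as full-length proteins or DNA-binding domains, were produced by PURExpress in vitro transcription/translation. About 100-200 nM protein was applied to universal all-10-mer Agilent arrays, double-stranded by primer extension on fresh or once-stripped slides. Bound protein was detected with fluorescent anti-GST, and scans were normalised with masliner. The Universal PBM Analysis Suite gave each ungapped eight-base word, pooled with its reverse complement, an E-score, a modified Wilcoxon-Mann-Whitney statistic.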

| Sequence | PBM E-score |
| --- | --- |
| GGATACAC | -0.164 |
| ACTGACTG | -0.0797 |
| TAATACTA | 0.304 |
| AACGGACA | 0.0822 |
| ACGGAGCC | -0.337 |
| AGGCGTAC | 0.105 |
| CCTAATGC | -0.00656 |
| CTGATAAC | 0.112 |
| ATCTAAAA | 0.0263 |
| CGCACTCC | -0.0923 |
| AATTTTTC | 0.0596 |
| ACCCGAAT | -0.108 |
| AACAAGTT | 0.03 |
| AGTGCAGA | -0.0919 |
| AAAACCGC | 0.0701 |
| AGTACAGC | -0.155 |
| ACTCCTCA | -0.192 |
| AGGTCGTA | 0.0256 |
| AAACTCCA | -0.00944 |
| ATACAATC | 0.0676 |
| ACGACTAG | 0.074 |
| ACGGGGCG | -0.0903 |
| CACGACGC | 0.0788 |
| CATGGCGC | -0.018 |
| CGCCCGCC | -0.189 |

| Sequence | PBM E-score |
| --- | --- |
| CGCATCCG | -0.123 |
| AGATTTGC | 0.135 |
| ATCCATTA | 0.0706 |
| AACGCATG | 0.14 |
| ATACATCG | 0.196 |
| ATCGCCAA | -0.119 |
| ACCATGCG | 0.0184 |
| GGGTCGCA | -0.148 |
| ATGTCCTC | -0.00522 |
| CATTGGTA | -0.135 |
| CGCCTATC | -0.143 |
| GCTCTTGA | -0.154 |
| CGTGTGGC | 0.152 |
| AGTCATGG | 0.0552 |
| ACTACCAG | -0.162 |
| CTCACACC | -0.0913 |
| AATAAAGT | 0.104 |
| AGAGAATG | 0.0874 |
| CCCTGCTA | -0.311 |
| GCTATGCC | -0.255 |
| TCTATCAA | 0.171 |
| AGCTACTG | -0.0638 |
| TGATTACA | 0.29 |
| TAACGCCA | 0.144 |
| ATGCCTAG | -0.0306 |

| Sequence | PBM E-score |
| --- | --- |
| CAACCTCC | -0.25 |
| ATCAAGAA | 0.22 |
| AGTATCCA | -0.152 |
| ACCCCTAT | 0.0475 |
| AAGATGAA | -0.078 |
| GTCAACGA | 0.167 |
| CGACCTGC | -0.175 |
| CGATGTGC | -0.0445 |
| CAGTGTGA | 0.0998 |
| GATGGCCA | -0.166 |
| ACTCCCAC | -0.278 |
| GTGCGTTA | 0.259 |
| TGATACAA | 0.112 |
| ACCATTCT | -0.115 |
| GACAGGAA | -0.0107 |
| CACCCTGA | -0.21 |
| CGATCCGA | -0.187 |
| CTGCGCAA | 0.0184 |
| TAACTACA | 0.147 |
| CAAAACAC | 0.169 |
| CACCCTCC | -0.188 |
| CTGTATGA | -0.0143 |
| ACGTAGAG | 0.387 |
| AAACCTTC | -0.131 |
| AACGAGCT | -0.0043 |

| Sequence | PBM E-score |
| --- | --- |
| CCAGTAGC | -0.185 |
| GATTGTTA | 0.159 |
| CCTCAGCG | -0.178 |
| AGTGGAAG | -0.198 |
| ATGAACTG | 0.0961 |
| CCCGACTC | -0.285 |
| CGTAGCAG | 0.145 |
| GGACTTCA | -0.319 |
| ACTTGGCA | -0.166 |
| AGCCTATG | -0.163 |
| GTTCTCAA | 0.0454 |
| CGACGCAC | 0.277 |
| GATGGACC | -0.056 |
| ACTTCGCG | 0.0331 |
| ACTACAAG | 0.0642 |
| CGTCTGTC | -0.0271 |
| CTACAAGA | -0.0664 |
| AATACTCG | 0.179 |
| CGCTTTCA | -0.0607 |
| GACATGAA | 0.0509 |
| CGCGCACG | 0.163 |
| CAGCTCCG | -0.0639 |
| CTCTAACC | -0.124 |
| CTTCTAAC | -0.0232 |
| AACTATAA | 0.081 |

| Sequence | PBM E-score |
| --- | --- |
| TAAGCCTA | 0.0163 |
| CATGTAGC | -0.0785 |
| AAGCGTGC | 0.0145 |
| TCTTTGCA | 0.0118 |
| ATGACCCG | -0.254 |
| GCATACGA | 0.188 |
| CCGCAGAA | -0.0505 |
| CGTTTTCC | 0.132 |
| CTCAGGTC | -0.0401 |
| CATGACCC | -0.0865 |
| CTCAACCC | -0.124 |
| GCCACCAC | 0.0383 |
| CACTTGCC | -0.141 |
| ATTTATGG | -0.0614 |
| CTGCCTAA | 0.0174 |
| GGAACAGA | -0.121 |
| GGCGATGA | 0.032 |
| CGGCCAGC | -0.249 |
| AGAGCTCT | -0.168 |
| AGCCCGAG | -0.15 |
| ACCAGCAC | -0.031 |
| CCAAGCCG | -0.249 |
| ATCGTCTA | 0.0503 |
| CGACGTGC | 0.22 |
| CGAACTTA | -0.00879 |

| Sequence | PBM E-score |
| --- | --- |
| AAGGAGTA | -0.211 |
| CCTCGAAA | -0.0122 |
| AATTGTCG | 0.0428 |
| TATGGCCA | 0.0659 |
| AGTCGACA | 0.138 |
| CTTAACTC | 0.101 |
| AAGGTATA | -0.0569 |
| ATCCGCGA | -0.0147 |
| ACCAATGG | -0.28 |
| TAAGCGCA | -0.0542 |
| CACCCACC | 0.00165 |
| CCCCAGAA | -0.064 |
| GGCATACA | -0.0373 |
| CCCAGAGC | -0.302 |
| ACAGTCAC | 0.0509 |
| TAAGTTGA | 0.108 |
| ACTTCCCT | -0.0484 |
| CAGGCGTA | 0.0577 |
| GAGTGCCC | -0.271 |
| GGTTCACA | -0.0743 |
| AAGCCACT | -0.198 |
| ACCCCTCC | -0.278 |
| ACGAGACT | 0.0545 |
| AAGGAGAT | 0.0451 |
| CTAGCAAA | -0.0312 |

| Sequence | PBM E-score |
| --- | --- |
| CCGCAGGC | -0.0769 |
| CATTCGAC | 0.103 |
| ACCCTACA | -0.0646 |
| AAGCAGAA | 0.0508 |
| CCTAGTGC | -0.128 |
| AATTGGGC | -0.125 |
| GAAAGCTA | -0.168 |
| AGACAGTA | 0.0897 |
| AGGGGTAG | -0.284 |
| GATTTTCA | 0.173 |
| AACGTCTG | 0.239 |
| AATATCAT | 0.213 |
| AATCCTAA | -0.0686 |
| ACTCAACT | 0.0578 |
| TCCACAAA | -0.0157 |
| ACGATTTA | 0.328 |
| GGAATCCA | -0.172 |
| GGTAACGA | 0.0123 |
| ACGTATGA | 0.473 |
| CTACGGCC | -0.354 |
| TGAATGCA | 0.136 |
| CGTTCCCC | -0.187 |
